Experimental data: the RNAGym collection of RNA variant scans (doi:10.1073/pnas.2313332121)
Variants at the background level are over-represented here.

B1: TPR 5TU (parent)
chain: GGAUCUUCUCGAUCUAACAAAAAAGACAAAUCUGCCACAAAGCUUGAGAGCAUCUUCGGAUGCAGAGGCGGCAGCCUUCGGUGGCGCGAUAGCGCCAACGUUCUCAACUAUGACACGCAAAACGCGUGCUCCGUUGAAUGGAGUUUAUCAUG

Variants of: B1
Assay: polymerase ribozyme fitness, log enrichment relative to wild type (log ratio); higher = more active; in vitro selection for triplet polymerase activity
In short: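 Each subunit of a heterodimeric triplet polymerase ribozyme was represented by a PCR-built, transcribed mutant library that underwent triplicate single-round in vitro selection with frozen incubation at −7 °C. Extended constructs were recovered by gel excision, streptavidin-bead capture and RT-PCR, and Illumina sequencing of input and output libraries kept genotypes with ≥10 input reads and ≥1 read per output. Fitness is the logarithm of genotype enrichment relative to wild-type enrichment, from inverse-variance-weighted replicate averages, with a logarithm base of 2.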
In the case of C69U C79G C95A, the “polymerase ribozyme fitness (log ratio)” value is reported as ≤ -4.2.
For A66C G74U C85G G86U A107C U146G, the “polymerase ribozyme fitness (log ratio)” value was ≤ -4.2.
With C69U G126A the “polymerase ribozyme fitness (log ratio)” value was 0.958.
In the case of G70A C93A U111C, the “polymerase ribozyme fitness (log ratio)” value is reported as ≤ -4.2.
With A66C G92C C96G A120G the “polymerase ribozyme fitness (log ratio)” value was -4.14.
In the case of G67C U130C A138G, the “polymerase ribozyme fitness (log ratio)” value is reported as ≤ -4.2.
With G67A C87U G92A G100A the “polymerase ribozyme fitness (log ratio)” value was ≤ -4.2.
With G70A G83A G86A the “polymerase ribozyme fitness (log ratio)” value was ≤ -4.2.
With G70A C87U A106G the “polymerase ribozyme fitness (log ratio)” value was -2.89.
With C69U A110U the “polymerase ribozyme fitness (log ratio)” value was ≤ -4.2.
For C69U A106C U135A G141A, the “polymerase ribozyme fitness (log ratio)” value was ≤ -4.2.
In the case of G71A A73G C85G U134G, the “polymerase ribozyme fitness (log ratio)” value is reported as ≤ -4.2.
In the case of G68A U139C, the “polymerase ribozyme fitness (log ratio)” value is reported as ≤ -4.2.
With G70A C93U C96G U102C U111A the “polymerase ribozyme fitness (log ratio)” value was ≤ -4.2.
In the case of G67C C87U G152U, the “polymerase ribozyme fitness (log ratio)” value is reported as ≤ -4.2.
In the case of C69U C85A A110G U134G U145C, the “polymerase ribozyme fitness (log ratio)” value is reported as ≤ -4.2.
With A66C G92A G128A U130G the “polymerase ribozyme fitness (log ratio)” value was ≤ -4.2.
In the case of G67A G84U, the “polymerase ribozyme fitness (log ratio)” value is reported as ≤ -4.2.
For G68A A138G, the “polymerase ribozyme fitness (log ratio)” value was ≤ -4.2.
For G68U G128U, the “polymerase ribozyme fitness (log ratio)” value was ≤ -4.2.
In the case of G67C A97C C103G C125U C129U A142U G143C A150U, the “polymerase ribozyme fitness (log ratio)” value is reported as ≤ -4.2.
In the case of G67A A91G U135G C149U, the “polymerase ribozyme fitness (log ratio)” value is reported as ≤ -4.2.
With G71A C85G C87U the “polymerase ribozyme fitness (log ratio)” value was ≤ -4.2.
In the case of G70C G83A A107G A115U A122G, the “polymerase ribozyme fitness (log ratio)” value is reported as ≤ -4.2.
In the case of C69A A91U, the “polymerase ribozyme fitness (log ratio)” value is reported as ≤ -4.2.
In the case of C69A A91G, the “polymerase ribozyme fitness (log ratio)” value is reported as -3.81.
In the case of G70A G88C, the “polymerase ribozyme fitness (log ratio)” value is reported as ≤ -4.2.
With A66C G100U U102A the “polymerase ribozyme fitness (log ratio)” value was ≤ -4.2.
For A66G C125G U146A, the “polymerase ribozyme fitness (log ratio)” value was ≤ -4.2.
With G70C G126U G152A the “polymerase ribozyme fitness (log ratio)” value was -3.99.
In the case of G70C G81A G86C A121U, the “polymerase ribozyme fitness (log ratio)” value is reported as ≤ -4.2.
In the case of G67C A91U C93A C105U G128U G152U, the “polymerase ribozyme fitness (log ratio)” value is reported as ≤ -4.2.
In the case of G68A C87U C114A U144C, the “polymerase ribozyme fitness (log ratio)” value is reported as -4.11.
With G67A A73C G94C C114A the “polymerase ribozyme fitness (log ratio)” value was ≤ -4.2.
With G67U G70A U130C U145G the “polymerase ribozyme fitness (log ratio)” value was ≤ -4.2.
In the case of G71A A91U U146G, the “polymerase ribozyme fitness (log ratio)” value is reported as ≤ -4.2.
With C69G C75A G86U A91U C149U the “polymerase ribozyme fitness (log ratio)” value was ≤ -4.2.
In the case of G67C C85U A119C U146G, the “polymerase ribozyme fitness (log ratio)” value is reported as ≤ -4.2.
With C69U G71U C87U A89C the “polymerase ribozyme fitness (log ratio)” value was -3.31.
In the case of G67C G86U C105G C132G U145G, the “polymerase ribozyme fitness (log ratio)” value is reported as ≤ -4.2.
With G70C G83C C105U C125U the “polymerase ribozyme fitness (log ratio)” value was ≤ -4.2.
In the case of G70A C85G G92C C105U G143A, the “polymerase ribozyme fitness (log ratio)” value is reported as ≤ -4.2.
In the case of C69U A119U, the “polymerase ribozyme fitness (log ratio)” value is reported as -1.57.
With A66U C87A A106U G143C the “polymerase ribozyme fitness (log ratio)” value was ≤ -4.2.
For A66C U77C C99U C108U, the “polymerase ribozyme fitness (log ratio)” value was ≤ -4.2.
With G70A A150C the “polymerase ribozyme fitness (log ratio)” value was ≤ -4.2.
With C69A G143U the “polymerase ribozyme fitness (log ratio)” value was -3.34.
For C69G C72U U134A, the “polymerase ribozyme fitness (log ratio)” value was ≤ -4.2.
For G68A C72A G83U C93G G140A U148C, the “polymerase ribozyme fitness (log ratio)” value was ≤ -4.2.
With G67A G81A A91C A137C U148C the “polymerase ribozyme fitness (log ratio)” value was ≤ -4.2.
In the case of G67C G70A G83C G84U, the “polymerase ribozyme fitness (log ratio)” value is reported as ≤ -4.2.
In the case of G68C G80U C105U A107U C129G, the “polymerase ribozyme fitness (log ratio)” value is reported as ≤ -4.2.
With G70U C75A C87G G94C G100U A150U the “polymerase ribozyme fitness (log ratio)” value was ≤ -4.2.
With G68C C99G A122C A150C the “polymerase ribozyme fitness (log ratio)” value was ≤ -4.2.
With G67C U77A U90G C95U U144C the “polymerase ribozyme fitness (log ratio)” value was ≤ -4.2.
With C69G G86C A121C the “polymerase ribozyme fitness (log ratio)” value was ≤ -4.2.
With G70C G86A C114U A115G G143U A150C the “polymerase ribozyme fitness (log ratio)” value was ≤ -4.2.
For G68A C93U, the “polymerase ribozyme fitness (log ratio)” value was -4.04.
With A66G C85U U111G U146A the “polymerase ribozyme fitness (log ratio)” value was ≤ -4.2.
In the case of G68C C93A C125U U146A, the “polymerase ribozyme fitness (log ratio)” value is reported as ≤ -4.2.
In the case of G67C C76U C96U C149U, the “polymerase ribozyme fitness (log ratio)” value is reported as ≤ -4.2.
With A66U A73G C76U G88C G92U G133U U151C G152U the “polymerase ribozyme fitness (log ratio)” value was ≤ -4.2.
In the case of G67U G83U G117U A119U, the “polymerase ribozyme fitness (log ratio)” value is reported as ≤ -4.2.
With G70A A73U C114A C118U A138C the “polymerase ribozyme fitness (log ratio)” value was ≤ -4.2.
In the case of G68U A91C U104G U134C, the “polymerase ribozyme fitness (log ratio)” value is reported as ≤ -4.2.
In the case of C69A G84A U104G C125U G126A A142C, the “polymerase ribozyme fitness (log ratio)” value is reported as ≤ -4.2.
With G70C G88U A97C the “polymerase ribozyme fitness (log ratio)” value was ≤ -4.2.
With G70A G86U the “polymerase ribozyme fitness (log ratio)” value was -3.77.
For G67A C96G U104G, the “polymerase ribozyme fitness (log ratio)” value was ≤ -4.2.
With A66G G88C the “polymerase ribozyme fitness (log ratio)” value was ≤ -4.2.
With A66U U127C the “polymerase ribozyme fitness (log ratio)” value was ≤ -4.2.
In the case of G68C C85U, the “polymerase ribozyme fitness (log ratio)” value is reported as -3.93.
With C69U U90A U135A A138G U139A the “polymerase ribozyme fitness (log ratio)” value was ≤ -4.2.
With G70A C96A G143A U146G the “polymerase ribozyme fitness (log ratio)” value was ≤ -4.2.
For G67A G84U C105U G133A A150C, the “polymerase ribozyme fitness (log ratio)” value was ≤ -4.2.
With C69U G84A A106C the “polymerase ribozyme fitness (log ratio)” value was -2.41.
In the case of G68U C85G, the “polymerase ribozyme fitness (log ratio)” value is reported as ≤ -4.2.
For A66G G68C U102A, the “polymerase ribozyme fitness (log ratio)” value was ≤ -4.2.
With G67A the “polymerase ribozyme fitness (log ratio)” value was -3.22.
With G67U the “polymerase ribozyme fitness (log ratio)” value was -2.55.
For G67C, the “polymerase ribozyme fitness (log ratio)” value was -3.97.
In the case of A66G C123G, the “polymerase ribozyme fitness (log ratio)” value is reported as ≤ -4.2.
With G70C A91C C95U U144C the “polymerase ribozyme fitness (log ratio)” value was ≤ -4.2.
With G68C U77A A138G the “polymerase ribozyme fitness (log ratio)” value was ≤ -4.2.
